Measured values as given in PubChem BioAssay AID488969 (Vanderbilt High Throughput Screening Facility, 2010).
In all, about 110,000 compounds were measured (“z-score”: median about -0.1, highest 2% from about 2 on). This is one part of the list.

Target: Metabotropic glutamate receptor 8 (Rattus norvegicus) (UniProt P70579)
Test: mGluR8 Gi/Go-coupled signaling modulation – cell-based, rat, thallium flux, HTS, primary screen (AID 488969)
Details: HEK293 rat mGluR8, GIRK (G protein-gated inwardly rectifying potassium channel) thallium flux, FluoZin2; at 10 µM; stronger effect = higher value; submaximal glutamate (EC20) added with thallium

UniProt P70579, sequence (P70579 whole entry, looked up): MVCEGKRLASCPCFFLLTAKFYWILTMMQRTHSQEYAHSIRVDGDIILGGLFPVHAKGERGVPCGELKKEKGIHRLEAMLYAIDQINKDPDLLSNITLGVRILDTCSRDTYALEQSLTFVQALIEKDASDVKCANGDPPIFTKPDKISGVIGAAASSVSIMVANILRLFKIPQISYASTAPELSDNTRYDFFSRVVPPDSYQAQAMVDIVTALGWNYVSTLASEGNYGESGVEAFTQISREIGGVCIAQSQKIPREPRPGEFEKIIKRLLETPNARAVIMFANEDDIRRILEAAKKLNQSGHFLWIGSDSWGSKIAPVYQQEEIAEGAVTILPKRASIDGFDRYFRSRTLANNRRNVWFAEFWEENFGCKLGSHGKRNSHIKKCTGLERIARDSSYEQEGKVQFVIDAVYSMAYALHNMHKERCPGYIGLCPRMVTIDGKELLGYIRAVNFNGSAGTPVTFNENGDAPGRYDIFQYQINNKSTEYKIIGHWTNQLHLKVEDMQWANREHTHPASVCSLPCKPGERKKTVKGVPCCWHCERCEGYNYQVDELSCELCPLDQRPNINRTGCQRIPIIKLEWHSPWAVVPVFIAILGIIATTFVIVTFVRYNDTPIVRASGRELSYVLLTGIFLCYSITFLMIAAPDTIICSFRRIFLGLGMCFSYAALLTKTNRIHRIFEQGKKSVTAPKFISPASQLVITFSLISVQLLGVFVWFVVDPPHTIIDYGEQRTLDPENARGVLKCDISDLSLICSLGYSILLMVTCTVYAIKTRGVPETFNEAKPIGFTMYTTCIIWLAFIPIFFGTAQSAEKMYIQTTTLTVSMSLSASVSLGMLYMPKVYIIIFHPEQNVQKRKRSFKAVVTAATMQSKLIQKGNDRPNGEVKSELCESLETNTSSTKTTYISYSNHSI

| SMILES | z-score |
| --- | --- |
| Cc1cccnc1NC(=O)c1cc2c(=O)oc3ccccc3c2s1 | -0.0284 |
| CCCn1c(C(O)c2cc(OC)ccc2OC)nc2ccccc21 (stereo unspecified) | -0.331 |
| CCN1C/C(=C/c2ccc(N3CCOCC3)cc2)C(=O)/C(=C/c2ccc(N3CCOCC3)cc2)C1 | -0.947 |
| CC(C)NC(=O)NC(=O)CSc1nncn1C | -0.0717 |
| CCCC(=O)Nc1nc2c(OC)ccc(OC)c2s1 | 0.152 |
| CCN1C(=O)CSC1=NC12CC3CC(CC(C3)C1)C2 | 0.196 |
| COC(=O)c1ccccc1NC(=O)c1ccc(-c2cccc(Cl)c2)o1 | -0.0272 |
| CC(C)(C)NC(=O)C(c1c[nH]c2ccccc12)N(C(=O)Cn1nnc(-c2ccc(Cl)cc2)n1)c1ccccc1F (stereo unspecified) | -0.447 |
| O=C(Cn1cc2c(n1)CCCC2)NCc1cccs1 | 0.0253 |
| O=[N+]([O-])c1ccc(Cl)c(CN2CCC(O)CC2)c1 | -0.183 |
| COc1cc(OC)cc(C(=O)NC(=S)Nc2cc3oc4ccccc4c3cc2OC)c1 | 0.106 |
| COc1ccc(-c2cc(C(F)(F)F)nc(N3CCOCC3)n2)cc1OC | -0.32 |
| COc1ccc2oc(=O)c(C(=O)N3c4ccccc4CC3C)cc2c1 (stereo unspecified) | -0.415 |
| CN1CCN(S(=O)(=O)c2cc([N+](=O)[O-])ccc2N/N=C/c2ccc(Cl)cc2)CC1 | 0.22 |
| COc1ccc(NC(=O)C(C/C=C(/C)Cl)C(C)=O)cc1 (stereo unspecified) | -0.155 |
| CCN(CC)c1ccc(NC(=O)c2cccc(OC)c2)c(C)c1 | 0.0766 |
| CC1(C)Cc2c(ccc3ccccc23)C(=O)N1 | -0.203 |
| CN(Cc1ccccc1)C(=O)CN(Cc1ccccc1)S(C)(=O)=O | 0.0708 |
| CC(=O)Nc1c(O)nc(SCc2ccccc2C#N)[nH]c1=O | -0.195 |

| SMILES | z-score |
| --- | --- |
| Cc1cc(=O)n2c3ccccc3n(CC(O)CN3CCCCC3)c2c1C#N (stereo unspecified) | -0.251 |
| COc1ccc(-c2cc(C(F)(F)F)n3nc(C)cc3n2)cc1 | -0.182 |
| Cc1ccnc(SCC(=O)Nc2c(C)n(C)n(-c3ccccc3)c2=O)n1 | -0.181 |
| CCCC1(CCC)NC(=O)N(CC(=O)Nc2cccc(OC)c2)C1=O | -1.59 |
| CCOc1ccc(N2C(=O)CN(C)C2=S)cc1 | 1.35 |
| CNc1c([N+](=O)[O-])cnn1-c1ccc(Cl)cc1Cl | -0.197 |
| CCOC(=O)c1ccccc1N/C=C/C(=O)c1cccs1 | -0.488 |
| Cc1c(Cl)c([N+](=O)[O-])nn1CCCC(=O)N(Cc1ccccc1)Cc1ccccc1 | -0.324 |
| COc1ccc(CC(=O)N2CCCc3ccccc32)cc1 | 0.036 |
| C=CCn1c(Cc2cccs2)nnc1SCC(=O)c1ccc2ccccc2c1 | -0.708 |
| COc1cc2c(cc1OC)C(c1ccccc1)N(C(=O)CCl)CC2 (stereo unspecified) | -0.148 |
| O=C(Nc1ccc2c(c1)OCO2)Nc1ccc(Cl)cc1Cl | 0.19 |
| N/C(Cc1ccc([N+](=O)[O-])cc1)=N\OC(=O)COc1ccccc1Cl | -0.645 |
| COc1ccc(CN2CCCC2C(=O)Nc2ccc(OC)c(OC)c2)cc1OC (stereo unspecified) | 0.166 |
| Cc1ccc(C#CC[N+]2(CC#Cc3ccc(C)cc3)CCCCC2)cc1 | 0.0354 |
| O=C(O)c1ccc2[nH]c3c(c2c1)CSCC3 | 0.316 |
| O=C(CSc1ccccc1)NCc1ccco1 | -0.232 |
| O=C(NCc1ccc2c(c1)OCO2)C1CCCN(C(=O)c2ccc(Cl)cc2)C1 (stereo unspecified) | -0.19 |
| Cc1ccc(C)c(N2CCN(C(=O)CCNC(=O)Cn3ccc4ccccc4c3=O)CC2)c1 | -0.336 |

| SMILES | z-score |
| --- | --- |
| COc1ccccc1NC(=O)N(Cc1ccco1)Cc1cc2c(C)ccc(C)c2[nH]c1=O | -0.193 |
| CN1C(=O)CC(N2CCN(c3ccccc3)CC2)C1=O (stereo unspecified) | -0.119 |
| CN1CCN(S(=O)(=O)c2ccc(NC(=O)c3cccs3)cc2)CC1 | -0.184 |
| CCOc1ccc(OCCOc2ncnc3ccccc23)cc1 | 0.0424 |
| COc1ccc(NC(=O)c2cc(SC)ccc2Cl)cc1 | -0.371 |
| COc1ccc(CNCC(O)(c2ccccc2)c2ccc(Cl)cc2)cc1 (stereo unspecified) | 0.316 |
| C=CCNC(=S)NNc1nc2c(c(=O)[nH]1)C1(CCCCC1)Cc1ccccc1-2 | -0.285 |
| CC(C)Oc1ccc(S(=O)(=O)N(C(C)C)C(C)C)cn1 | -0.497 |
| COc1ccc(Cl)cc1NC(=O)c1ccoc1C | -0.939 |
| COc1ccc(-n2ccnc2SCC(=O)Nc2ccc(OC)cc2OC)cc1 | -0.371 |
| O=C(CSc1nc(-c2cccs2)cc(C(F)(F)F)n1)NCCCn1ccnc1 | -0.35 |
| CCN1CCN(c2nc(-c3ccncc3)nc3ccccc23)CC1 | -0.184 |
| COc1ccc([N+](=O)[O-])cc1NCc1ccccc1 | -0.448 |
| O=c1c2cc(Cl)ccc2oc2nc3n(c(=O)c12)CCCS3 | 0.0365 |
| O=C(Cn1nc(-c2ccccc2F)ccc1=O)Nc1ccc(S(=O)(=O)N2CCCCCC2)cc1 | -0.105 |
| COc1cccc(/C=N/NC(=O)CO/N=C(\C)c2cccs2)c1OC | -0.782 |
| CC(C)C(=O)Nc1nnc(CCN2CCCCC2)s1 | 1.67 |
| Cc1ccc(NNC(=S)Nc2ccc(C(C)C)cc2)c(C)c1 | -1.28 |
